Some of the results follow. Single values are uncertain, as repeats are few or missing.
The compounds below were run on LB2518-MEL (assay: cell count relative to DMSO control; melanoma cells; higher = more viable cells). Conditions: library dose: standard library concentration; 72 h.
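Also: cells treated in 1,536-well plates, then fixed and DAPI-stained, with nuclei counted from automated high-throughput microscope images.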

| Structure (SMILES) | cell count |
| --- | --- |
| O=C(O)c1ccc2c(c1)nc(Nc1cccc(Cl)c1)c1ccncc12 + COc1cc(N2CCC(N3CCN(C)CC3)CC2)ccc1Nc1ncc(Cl)c(Nc2ccccc2S(=O)(=O)C(C)C)n1 [NVP-TAE684] (first compound 2 µM, partner dose 0.4 µM) | 118% |
| O=C(Nc1cc(C(F)(F)F)cc(C(F)(F)F)c1)c1cc(Cl)ccc1O + COc1ccc(COc2ccc(Cc3cnc(N)nc3N)cc2OC)cc1 [GW2580] (first compound 0.08 µM, partner dose 5 µM) | 117% |
| O=C(O)c1ccc2c(c1)nc(Nc1cccc(Cl)c1)c1ccncc12 + CCc1ccc(CCOc2ccc(CC3SC(=O)NC3=O)cc2)nc1 [pioglitazone] (first compound 2 µM, partner dose 10 µM) | 126% |
| O=C(O)c1ccc2c(c1)nc(Nc1cccc(Cl)c1)c1ccncc12 + O=c1cc(-c2cccc3c2Sc2ccccc2S3)oc(N2CCOCC2)c1 [KU55933] (first compound 2 µM, partner dose 5 µM) | 105% |
| O=C(Nc1cc(C(F)(F)F)cc(C(F)(F)F)c1)c1cc(Cl)ccc1O + CCc1ccc(CCOc2ccc(CC3SC(=O)NC3=O)cc2)nc1 [pioglitazone] (first compound 0.08 µM, partner dose 10 µM) | 105% |
| O=C(O)c1ccc2c(c1)nc(Nc1cccc(Cl)c1)c1ccncc12 + O=C(Nc1ccccc1)c1cc([N+](=O)[O-])ccc1Cl [GW9662] (first compound 2 µM, partner dose 10 µM) | 75% |
| O=C(O)[C@@H]1[O][Sb](=[O])([O][Sb]2(=[O])[O][C@H]([C@H](O)CO)[C@H](O)[C@H](C(=O)O)[O]2)[O][C@H]([C@H](O)CO)[C@@H]1O (stereo not given in full) [stibogluconate] + COc1ccc2c(c1)CCC1C2CCC2(C)C(NCCCCCCN3C(=O)C=CC3=O)CCC12 [U73122] (first compound 10 µM, partner dose 2 µM) | 103% |

Each compound was assayed on LOXIMVI in the same assay as above. Conditions: library dose: standard library concentration; 72 h.

| Structure (SMILES) | cell count |
| --- | --- |
| O=C(Nc1cc(C(F)(F)F)cc(C(F)(F)F)c1)c1cc(Cl)ccc1O + Nc1ncn([C@H]2C[C@H](O)[C@@H](CO)O2)c(=O)n1 [decitabine] (first compound 0.08 µM, partner dose 0.5 µM) | 83% |
| O=C(O)[C@@H]1[O][Sb](=[O])([O][Sb]2(=[O])[O][C@H]([C@H](O)CO)[C@H](O)[C@H](C(=O)O)[O]2)[O][C@H]([C@H](O)CO)[C@@H]1O (stereo not given in full) [stibogluconate] + N#Cc1c(O)c2c(-c3ccc(-c4ccccc4O)cc3)csc2[nH]c1=O [A769662] (first compound 10 µM, partner dose 10 µM) | 99.7% |
| O=C(Nc1ccccc1)c1cc([N+](=O)[O-])ccc1Cl + Cc1cc([N+](=O)[O-])ccc1NS(=O)(=O)c1cc(Cl)ccc1Cl [FH535] (first compound 10 µM, partner dose 5 µM) | 73.1% |
| O=C(Nc1cc(C(F)(F)F)cc(C(F)(F)F)c1)c1cc(Cl)ccc1O + Nc1ccn([C@@H]2O[C@H](CO)[C@@H](O)C2(F)F)c(=O)n1 [gemcitabine] (first compound 0.08 µM, partner dose 0.002 µM) | 57.7% |
| O=C(Nc1cc(C(F)(F)F)cc(C(F)(F)F)c1)c1cc(Cl)ccc1O + C=CCn1c(=O)c2cnc(Nc3ccc(N4CCN(C)CC4)cc3)nc2n1-c1cccc(C(C)(C)O)n1 [MK1775] (first compound 0.08 µM, partner dose 0.1 µM) | 92.5% |
| O=C(Nc1cc(C(F)(F)F)cc(C(F)(F)F)c1)c1cc(Cl)ccc1O + CCCCCCCCCCCC1=C(O)C(=O)C=C(O)C1=O [Embelin] (first compound 0.08 µM, partner dose 6 µM) | 112% |
| Cn1nnc2c(C(N)=O)ncn2c1=O [temozolomide] + CCN(CC)CCCCNc1ncc2cc(-c3cc(OC)cc(OC)c3)c(NC(=O)NC(C)(C)C)nc2n1 [PD173074] (first compound 10 µM, partner dose 0.5 µM) | 91.4% |
| O=C(O)[C@@H]1[O][Sb](=[O])([O][Sb]2(=[O])[O][C@H]([C@H](O)CO)[C@H](O)[C@H](C(=O)O)[O]2)[O][C@H]([C@H](O)CO)[C@@H]1O (stereo not given in full) [stibogluconate] + Nc1ncn([C@H]2C[C@H](O)[C@@H](CO)O2)c(=O)n1 [decitabine] (first compound 10 µM, partner dose 0.5 µM) | 92.7% |

— the supplement of paper PMC4604168 (melanoma cell lines)
